Measured values: the supplement of paper PMC11417369
± gives the standard deviation of the averaged measurements. The list shows a part of the results.

The sequences below were run on PfAP2-EXP AP2 domain (GST-tagged) (assay: gcPBM binding intensity (ln(normalized median fluorescence intensity)); higher = stronger DNA binding).
Method in brief: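 Binding intensity is the highest Masliner-normalised natural-log median intensity over replicate spots in either probe orientation. To obtain it, GST-tagged P. falciparum DNA-binding domains made in E. coli were incubated for 1 h on an Agilent 4 × 180k array of primer-extended double-stranded 36-bp intergenic genomic probes plus negative controls. Detection used Alexa488 anti-GST antibody with scanning at 488 nm.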
With “ACGTGTGATTATAATTGTACTTTAATGTAAGAATGA [XGTACX_site1109]” the “gcPBM binding intensity (ln)” value was 8.55 ± 0.32.
In the case of “ATATATATATATATATGTACTTATAATAATATTCAA [XGTACX_site2593]”, the “gcPBM binding intensity (ln)” value is reported as 10 ± 0.59.
With “AATTTTATTTAATTTTTTTGGGAAATGATAAAATTT [CACACA_negctrl_site934]” the “gcPBM binding intensity (ln)” value was 7.96 ± 0.45.
With “TTATTTTATTTTTTTGTGCACATATATATTTATAAA [GTGCAC_site9615]” the “gcPBM binding intensity (ln)” value was 9.15 ± 0.21.
With “ACTTATATATTATGTTGTCCGTCCATTCTCTTTATC [XGTACX_site3769]” the “gcPBM binding intensity (ln)” value was 9.23 ± 0.46.
For “TTTTCATTCAATTATATTTATATATATATATATATA [GTGCAC_negctrl_site538]”, the “gcPBM binding intensity (ln)” value was 10.2 ± 0.44.
In the case of “CAAAATATTTTTATAACACACATATATATAATGTGC [CACACA_site4767]”, the “gcPBM binding intensity (ln)” value is reported as 8.58 ± 0.38.
With “TACATGTATAAATAAGCACACATGTGGATATGTACA [CACACA_site93]” the “gcPBM binding intensity (ln)” value was 8.96 ± 0.37.
In the case of “TACACAAGGGGAAAAATATATATATATATATATATA [TGCATGCA_negctrl_site217]”, the “gcPBM binding intensity (ln)” value is reported as 10.2 ± 0.57.
“TAAAAAATTTTATATTCACACACATATATATATATA [CACACA_site8109]” was tested, and the “gcPBM binding intensity (ln)” value was 10.1 ± 0.31.
“TAAAAGTATATATATACACACATAAATATATATGTA [CACACA_site663]” was tested, and the “gcPBM binding intensity (ln)” value was 8.37 ± 0.3.
“TTGTGAAATAAAATTTGTACACACATATATATATAT [XGTACX_site1078]” was tested, and the “gcPBM binding intensity (ln)” value was 10.14 ± 0.092.
For “AAAATTTAAAGCATGACACACAATTATATTATGTGC [CACACA_site3435]”, the “gcPBM binding intensity (ln)” value was 8.29 ± 0.47.
“TTTTTTTTGGAATTCACACAAATATAACATGGGTAT [CACACA_site5185]” was tested, and the “gcPBM binding intensity (ln)” value was 8.46 ± 0.38.
“TTCTTTTCTTTAGTAGAATGTAAAAAATATAATCTT [XGTACX_negctrl_site290]” was tested, and the “gcPBM binding intensity (ln)” value was 8.17 ± 0.51.
With “GGAATTGAAAAATCAGCACACACACTAATACATACA [CACACA_site9059]” the “gcPBM binding intensity (ln)” value was 8.76 ± 0.45.
In the case of “AAATGGCAATAATGGACACACAAATGTTGTTATATA [CACACA_site2819]”, the “gcPBM binding intensity (ln)” value is reported as 8.62 ± 0.35.
In the case of “AATAATTGTTAAAGGTGTACAATACCTACATAAGAA [XGTACX_site4215]”, the “gcPBM binding intensity (ln)” value is reported as 8.88 ± 0.23.
For “AAAAAGGAAATTTACACACACATATAATATACATTA [CACACA_site3296]”, the “gcPBM binding intensity (ln)” value was 8.47 ± 0.47.
With “ATTTACCAGACCATATGTACATACATAAAACACACA [XGTACX_site3788]” the “gcPBM binding intensity (ln)” value was 9.07 ± 0.59.
In the case of “ATATGATTATTATTATATAAATTATAAAGTCTAATA [GTGCAC_negctrl_site586]”, the “gcPBM binding intensity (ln)” value is reported as 7.88 ± 0.38.
With “GTTCTACAAGCCACTGCATGCTGATATAGAATAAAT [TGCATGCA_site138]” the “gcPBM binding intensity (ln)” value was 9.35 ± 0.34.
With “TCATATATCCTTATCACACATATAATAAATTCCCTT [CACACA_site4457]” the “gcPBM binding intensity (ln)” value was 8.53 ± 0.37.
With AATATTTCTCATTTTGTGCACTGAAAAATGTAATAT the “gcPBM binding intensity (ln)” value was 8.675 ± 0.021.
“TTCTTTGCTTTTCAAACACACAAAAGTTATTATAGT [CACACA_site6390]” was tested, and the “gcPBM binding intensity (ln)” value was 8.47 ± 0.4.
TCACATTTTGGACACGTGCACATATATTTGATACAT was tested, and the “gcPBM binding intensity (ln)” value was 8.93 ± 0.32.
With “AAAATTAATTATTACAAAAATGAAAAGACATATTTT [GTGCAC_negctrl_site735]” the “gcPBM binding intensity (ln)” value was 8.23 ± 0.38.
With “ATTTATATATAAATGTGTACATATATATATATAAAC [XGTACX_site7592]” the “gcPBM binding intensity (ln)” value was 8.76 ± 0.3.
In the case of “TACCATGTTCAAATTACACACATATAATGCAATATA [CACACA_site7034]”, the “gcPBM binding intensity (ln)” value is reported as 8.63 ± 0.3.
In the case of “CTGAAATTAACAAAAGTGCATAAAAATAAAAAATAT [GTGCAC_site9652]”, the “gcPBM binding intensity (ln)” value is reported as 8.99 ± 0.29.
“ATTGTAAGTAAACACACACACATATATCTGTATTTA [CACACA_site4542]” was tested, and the “gcPBM binding intensity (ln)” value was 8.42 ± 0.45.
With “CAATGCAAGGCTTAAAAAAATGGGCATATTATATAT [GTGCAC_negctrl_site304]” the “gcPBM binding intensity (ln)” value was 8.48 ± 0.61.
In the case of “TTTTTTTACAACATTACACACAAATATTCTGGGTTA [CACACA_site3755]”, the “gcPBM binding intensity (ln)” value is reported as 8.52 ± 0.43.
In the case of “AATATTATATTAAAATGTACAAAAATGAATTACTTT [XGTACX_site1473]”, the “gcPBM binding intensity (ln)” value is reported as 8.49 ± 0.38.
In the case of “TATATACATATATATATATGTATAGATAGATACATT [CACACA_negctrl_site1511]”, the “gcPBM binding intensity (ln)” value is reported as 8.53 ± 0.35.
“TAACCACAATTTTAATGTACATATATATTTATATAT [XGTACX_site8968]” was tested, and the “gcPBM binding intensity (ln)” value was 8.36 ± 0.3.
“ATTTCTATAAAAATAATCTACATTTTTTTTTTTTTT [CACACA_negctrl_site917]” was tested, and the “gcPBM binding intensity (ln)” value was 8.09 ± 0.47.
In the case of “AATATTTTACAATACACATGCAAATAATATTCTAAA [TGCATGCA_site618]”, the “gcPBM binding intensity (ln)” value is reported as 8.63 ± 0.39.
For “TTTTGAAAAAATTTTTATAAAAGAATAAAATTATTA [XGTACX_negctrl_site570]”, the “gcPBM binding intensity (ln)” value was 8.12 ± 0.4.
“TAAAAATGGAAACACACACACATAAATATATTTTAT [CACACA_site2513]” was tested, and the “gcPBM binding intensity (ln)” value was 8.79 ± 0.5.
In the case of “TCTCATTTTCCCTAAAAAAAAAAATAAATAAAAATA [TGCATGCA_negctrl_site580]”, the “gcPBM binding intensity (ln)” value is reported as 8.26 ± 0.43.
For “TTTTTCCATATTGTAGCATGCAGTATATATATCATG [TGCATGCA_site530]”, the “gcPBM binding intensity (ln)” value was 9.47 ± 0.25.
In the case of “ATATTATTTATGTATGCATGCGGCGAAATGGGCTTG [TGCATGCA_site28]”, the “gcPBM binding intensity (ln)” value is reported as 9.39 ± 0.33.
“AATGGGTTACACATATGTACATAAAATATAAAAAAT [XGTACX_site3440]” was tested, and the “gcPBM binding intensity (ln)” value was 8.91 ± 0.51.
